From ChEMBL document CHEMBL1157539, “Thousands of chemical starting points for antimalarial lead identification” (Nature, 2010)
Whole data set: some 13,000 compounds, median “IFI” near 4, cut for the highest 2% near 17. The list shows a part of the results.

Experiment: GSK_TCMDC: Inhibition Frequency Index (IFI). The number of non-kinase HTS assays where a compound showed > 50 % inhibition, expressed as a percentage of the number of such assays in which the compound was tested (-0 is zero)
Assay type: functional

| Compound | IFI |
| --- | --- |
| CC(=Nc1ccc(Cl)c(Cl)c1)N(C)C | 0.74% |
| O=C(NCCCCCN1CCC(c2c[nH]c3ccccc23)CC1)Nc1ccc(Br)cc1 | 6.38% |
| COC(=O)Nc1nc2cc3c(cc2s1)OCCO3 | 4.93% |
| CCOc1ccc(OCC)c(N2CCN(CCCCNC(=O)c3ccc(NC(=O)c4ccc(Cl)cc4)cc3)CC2)c1 | 1.79% |
| CS(=O)(=O)Nc1cccc(-c2cnc3[nH]cc(-c4ccc(CN)cc4)c3c2)c1 | 5.5% |
| Cc1cc(Nc2ccc(C)c(Cl)c2)n2ncnc2n1 | 0.85% |
| Cc1nc(O)c2c(ccc3ccc(CNc4ccc(C(=O)N[C@@H](CCC(=O)O)C(=O)O)c(F)c4)cc32)n1 | 1.47% |
| CCC(Nc1noc(-c2c(-c3ccccc3)noc2C)n1)c1ccccc1 (stereo not given) | 1.52% |
| CC(C)CC1c2[nH]c3ccccc3c2CCN1C(=O)CCc1ccccc1 (stereo not given) | 3.94% |
| COc1ccc(-c2cccc(CNC3CCN(CC4Cn5c(=O)ccc6ccc(F)c4c65)CC3)c2)cc1 (stereo not given) | 4.17% |
| O=C(/C=C/c1ccc(Cl)c(Cl)c1)NCCCCCCN1CCCN(C(=O)Nc2cc(Cl)cc(Cl)c2)CC1 | 4.96% |
| CCN(CC)c1ccc(NC(=S)NC2CCN(CCCCCNC(=O)/C=C/c3ccc(Cl)c(Cl)c3)CC2)cc1 | 9.93% |
| CCCN(CCC)CCCNc1ccc(C(=O)Nc2ccc(C)c(F)c2)cc1[N+](=O)[O-] | 3.62% |
| COc1ccc(S(=O)(=O)Nc2ccc(C(=O)NCc3ccccc3C(F)(F)F)cc2)cc1N1CCN(CC2CC2)CC1 | 19.4% |
| Cc1cccc2nc(-c3cccc(-c4ccc(NC(=O)C(C)C(=O)NC(C)C)cc4)c3)[nH]c12 (stereo not given) | 4.35% |
| CS(=O)(=O)CCNCc1cccc(-c2cc3c(Nc4ccc(OCc5cccc(F)c5)c(Cl)c4)ncnc3s2)c1 | 2.7% |
| CCc1cc(-c2onc(C)c2-c2cc3ccccc3o2)c(O)cc1OC | 13.8% |
| COc1ccc(-c2ccc(NC(=O)c3ccccc3)cc2)cc1CN1CCCN(C)CC1 | 4.95% |
| COc1ccccc1CN1CCC(NC(=O)c2ccc(-c3cccc(C(F)(F)F)c3)s2)CC1 | 13.8% |
| COc1cc(NC(=O)c2sc(-c3ccc(Cl)cc3)cc2NC(=O)CN2CC[C@@H](O)C2)ccc1OCCN1CCCC1 | 13% |
| CC1CCC2(CC1)N=C(N)N=C(N)N2OCc1cc2ccccc2c2ccccc12 (stereo not given) | 3.52% |
| Nc1nc(N)c2c(ccc3c2ccn3Cc2cccc3ccccc23)n1 | 5.84% |
| Nc1nc2ccc(S(=O)(=O)Nc3ccc(C(=O)N[C@@H](CCC(=O)O)C(=O)O)c(F)c3)cc2c(=O)[nH]1 | 3.5% |
| COc1ccccc1CNc1ccnc(N2CC(Oc3ccc(F)cc3)C2)n1 | 4% |
| CCn1c(Sc2ccc(C#N)c([N+](=O)[O-])c2)nnc1-c1cccc(Cl)c1 | 1.43% |
